{"source": "the supplement of paper PMC8728848", "binders": {"B1": {"name": "CIH1 (Colletotrichum higginsianum) (protein)", "chain": "LPQATPTTPTPTSASAAATISATSSPTCSPGPVIDYTVVSGDTLTIISQRFSSGICNIADASGITNPNFLSLGQVLQVPTYVCTPDNTSCLAKEGSDTCVEGGPATHTIVAGDTFFLVAQSLGLDVNALLAANEGVDPLLLQIGDVINIPVC"}}, "assay_in_all_cases": "glycan array binding signal (z-score within array); higher = stronger binding", "conditions_in_all_cases": "glycan notation: IUPAC condensed, linker removed", "key": {"[1]": {"molecular_target": "Neu5Ac(a2-3)Gal(b1-3)[Neu5Ac(a2-6)]GlcNAc(b1-3)[Fuc(a1-3)[Gal(b1-4)]GlcNAc(b1-6)]Gal(b1-4)Glc", "summary_of_the_method": "(§1)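 Columns mapping to the same glycan were averaged after glycan names were converted to IUPAC-condensed notation. The data come from 3228 arrays in the Consortium for Functional Glycomics database, limited to those with an available protein sequence. Binding is reported as a within-array Z-score averaged across arrays of one protein sequence and across linkers.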"}, "Neu5Ac(a2-3)Gal(b1-4)Glc": {"molecular_target": "Neu5Ac(a2-3)Gal(b1-4)Glc", "summary_of_the_method": "as §1"}, "[2]": {"molecular_target": "Neu5Ac(a2-3)Gal(b1-4)GlcNAc", "summary_of_the_method": "as §1"}, "[3]": {"molecular_target": "Neu5Ac(a2-3)Gal(b1-4)GlcNAc(b1-2)Man", "summary_of_the_method": "as §1"}, "[4]": {"molecular_target": "Neu5Ac(a2-3)Gal(b1-4)GlcNAc(b1-2)Man(a1-3)[GlcNAc(b1-2)Man(b1-4)GlcNAc(b1-2)Man(a1-6)]Man(b1-4)GlcNAc(b1-4)GlcNAc", "summary_of_the_method": "as §1"}, "[5]": {"molecular_target": "Neu5Ac(a2-3)Gal(b1-4)GlcNAc(b1-2)Man(a1-3)[Neu5Ac(a2-3)Gal(b1-4)GlcNAc(b1-2)Man(a1-6)]Man(b1-4)GlcNAc(b1-4)[Fuc(a1-6)]GlcNAc", "summary_of_the_method": "as §1"}, "[6]": {"molecular_target": "Neu5Ac(a2-3)Gal(b1-4)GlcNAc(b1-2)Man(a1-3)[Neu5Ac(a2-6)Gal(b1-4)GlcNAc(b1-2)Man(a1-6)]Man(b1-4)GlcNAc(b1-4)GlcNAc", "summary_of_the_method": "as §1"}, "[7]": {"molecular_target": "Neu5Ac(a2-3)Gal(b1-4)GlcNAc(b1-2)[Neu5Ac(a2-3)Gal(b1-4)GlcNAc(b1-6)]Man(a1-6)[Neu5Ac(a2-3)Gal(b1-4)GlcNAc(b1-2)Man(a1-3)]Man(b1-4)GlcNAc(b1-4)GlcNAc", "summary_of_the_method": "as §1"}, "[8]": {"molecular_target": "Neu5Ac(a2-3)Gal(b1-4)GlcNAc(b1-3)Gal", "summary_of_the_method": "as §1"}, "[9]": {"molecular_target": "Neu5Ac(a2-3)Gal(b1-4)GlcNAc(b1-3)Gal(b1-3)GlcNAc", "summary_of_the_method": "as §1"}, "[10]": {"molecular_target": "Neu5Ac(a2-3)Gal(b1-4)GlcNAc(b1-3)Gal(b1-4)GlcNAc", "summary_of_the_method": "as §1"}, "[11]": {"molecular_target": "Neu5Ac(a2-3)Gal(b1-4)GlcNAc(b1-3)Gal(b1-4)GlcNAc(b1-3)Gal(b1-4)GlcNAc", "summary_of_the_method": "as §1"}, "[12]": {"molecular_target": "Neu5Ac(a2-3)Gal(b1-4)GlcNAc(b1-3)Gal(b1-4)[Fuc(a1-3)]GlcNAc", "summary_of_the_method": "as §1"}, "[13]": {"molecular_target": "Neu5Ac(a2-3)Gal(b1-4)GlcNAc(b1-3)GalNAc", "summary_of_the_method": "as §1"}, "[14]": {"molecular_target": "Neu5Ac(a2-3)Gal(b1-4)GlcNAc(b1-3)[Neu5Ac(a2-3)Gal(b1-4)GlcNAc(b1-6)]GalNAc", "summary_of_the_method": "as §1"}, "[15]": {"molecular_target": "Neu5Ac(a2-3)Gal(b1-4)GlcNAc(b1-6)GalNAc", "summary_of_the_method": "as §1"}, "[16]": {"molecular_target": "Neu5Ac(a2-3)Gal(b1-4)GlcNAc(b1-6)[Gal(b1-3)]GalNAc", "summary_of_the_method": "as §1"}, "[17]": {"molecular_target": "Neu5Ac(a2-3)Gal(b1-4)GlcNAc(b1-6)[Neu5Ac(a2-3)Gal(b1-3)]GalNAc", "summary_of_the_method": "as §1"}, "[18]": {"molecular_target": "Neu5Ac(a2-3)Gal(b1-4)GlcNAc6S", "summary_of_the_method": "as §1"}, "[19]": {"molecular_target": "Neu5Ac(a2-3)Gal(b1-4)[Fuc(a1-3)]GlcNAc", "summary_of_the_method": "as §1"}, "[20]": {"molecular_target": "Neu5Ac(a2-3)Gal(b1-4)[Fuc(a1-3)]GlcNAc(b1-3)Gal", "summary_of_the_method": "as §1"}, "[21]": {"molecular_target": "Neu5Ac(a2-3)Gal(b1-4)[Fuc(a1-3)]GlcNAc(b1-3)Gal(b1-4)GlcNAc", "summary_of_the_method": "as §1"}, "[22]": {"molecular_target": "Neu5Ac(a2-3)Gal(b1-4)[Fuc(a1-3)]GlcNAc(b1-3)Gal(b1-4)[Fuc(a1-3)]GlcNAc(b1-3)Gal(b1-4)[Fuc(a1-3)]GlcNAc", "summary_of_the_method": "as §1"}, "[23]": {"molecular_target": "Neu5Ac(a2-3)Gal(b1-4)[Fuc(a1-3)]GlcNAc(b1-3)GalNAc", "summary_of_the_method": "as §1"}, "[24]": {"molecular_target": "Neu5Ac(a2-3)Gal(b1-4)[Fuc(a1-3)]GlcNAc(b1-6)[Gal(b1-3)]GalNAc", "summary_of_the_method": "as §1"}, "[25]": {"molecular_target": "Neu5Ac(a2-3)Gal(b1-4)[Fuc(a1-3)]GlcNAc6S", "summary_of_the_method": "as §1"}, "[26]": {"molecular_target": "Neu5Ac(a2-3)Gal6S(b1-4)GlcNAc", "summary_of_the_method": "as §1"}, "[27]": {"molecular_target": "Neu5Ac(a2-3)Gal6S(b1-4)[Fuc(a1-3)]GlcNAc", "summary_of_the_method": "as §1"}, "Neu5Ac(a2-3)GalNAc": {"molecular_target": "Neu5Ac(a2-3)GalNAc", "summary_of_the_method": "as §1"}, "[28]": {"molecular_target": "Neu5Ac(a2-3)GalNAc(b1-4)GlcNAc", "summary_of_the_method": "as §1"}, "[29]": {"molecular_target": "Neu5Ac(a2-3)[GalNAc(b1-4)]Gal(b1-4)Glc", "summary_of_the_method": "as §1"}, "[30]": {"molecular_target": "Neu5Ac(a2-3)[GalNAc(b1-4)]Gal(b1-4)GlcNAc", "summary_of_the_method": "as §1"}, "[31]": {"molecular_target": "Neu5Ac(a2-3)[GalNAc(b1-4)]Gal(b1-4)GlcNAc(b1-3)GalNAc", "summary_of_the_method": "as §1"}, "[32]": {"molecular_target": "Neu5Ac(a2-3)[Neu5Ac(a2-6)]GalNAc", "summary_of_the_method": "as §1"}, "Neu5Ac(a2-6)Gal": {"molecular_target": "Neu5Ac(a2-6)Gal", "summary_of_the_method": "as §1"}, "[33]": {"molecular_target": "Neu5Ac(a2-6)Gal(b1-3)GlcNAc(b1-3)[Gal(b1-4)GlcNAc(b1-6)]Gal(b1-4)Glc", "summary_of_the_method": "as §1"}, "Neu5Ac(a2-6)Gal(b1-4)Glc": {"molecular_target": "Neu5Ac(a2-6)Gal(b1-4)Glc", "summary_of_the_method": "as §1"}, "[34]": {"molecular_target": "Neu5Ac(a2-6)Gal(b1-4)GlcNAc", "summary_of_the_method": "as §1"}, "[35]": {"molecular_target": "Neu5Ac(a2-6)Gal(b1-4)GlcNAc(b1-2)Man(a1-3)Man(b1-4)GlcNAc(b1-4)GlcNAc", "summary_of_the_method": "as §1"}, "[36]": {"molecular_target": "Neu5Ac(a2-6)Gal(b1-4)GlcNAc(b1-2)Man(a1-3)[Gal(b1-4)GlcNAc(b1-2)Man(a1-6)]Man(b1-4)GlcNAc(b1-4)GlcNAc", "summary_of_the_method": "as §1"}, "[37]": {"molecular_target": "Neu5Ac(a2-6)Gal(b1-4)GlcNAc(b1-2)Man(a1-3)[GlcNAc(b1-2)Man(a1-6)]Man(b1-4)GlcNAc(b1-4)GlcNAc", "summary_of_the_method": "as §1"}, "[38]": {"molecular_target": "Neu5Ac(a2-6)Gal(b1-4)GlcNAc(b1-2)Man(a1-3)[GlcNAc(b1-2)Man(b1-4)GlcNAc(b1-2)Man(a1-6)]Man(b1-4)GlcNAc(b1-4)GlcNAc", "summary_of_the_method": "as §1"}}, "note": "The list shows a part of the results.", "data": [{"binder": "B1", "values": [{"measurement": "glycan array binding signal (z-score)", "setting": "[1]", "value": -0.077}, {"measurement": "glycan array binding signal (z-score)", "setting": "Neu5Ac(a2-3)Gal(b1-4)Glc", "value": -0.071}, {"measurement": "glycan array binding signal (z-score)", "setting": "[2]", "value": -0.068}, {"measurement": "glycan array binding signal (z-score)", "setting": "[3]", "value": -0.049}, {"measurement": "glycan array binding signal (z-score)", "setting": "[4]", "value": -0.08}, {"measurement": "glycan array binding signal (z-score)", "setting": "[5]", "value": -0.029}, {"measurement": "glycan array binding signal (z-score)", "setting": "[6]", "value": -0.064}, {"measurement": "glycan array binding signal (z-score)", "setting": "[7]", "value": -0.064}, {"measurement": "glycan array binding signal (z-score)", "setting": "[8]", "value": -0.066}, {"measurement": "glycan array binding signal (z-score)", "setting": "[9]", "value": -0.062}, {"measurement": "glycan array binding signal (z-score)", "setting": "[10]", "value": -0.072}, {"measurement": "glycan array binding signal (z-score)", "setting": "[11]", "value": -0.063}, {"measurement": "glycan array binding signal (z-score)", "setting": "[12]", "value": -0.073}, {"measurement": "glycan array binding signal (z-score)", "setting": "[13]", "value": -0.049}, {"measurement": "glycan array binding signal (z-score)", "setting": "[14]", "value": -0.081}, {"measurement": "glycan array binding signal (z-score)", "setting": "[15]", "value": -0.078}, {"measurement": "glycan array binding signal (z-score)", "setting": "[16]", "value": -0.049}, {"measurement": "glycan array binding signal (z-score)", "setting": "[17]", "value": -0.054}, {"measurement": "glycan array binding signal (z-score)", "setting": "[18]", "value": -0.036}, {"measurement": "glycan array binding signal (z-score)", "setting": "[19]", "value": -0.069}, {"measurement": "glycan array binding signal (z-score)", "setting": "[20]", "value": -0.064}, {"measurement": "glycan array binding signal (z-score)", "setting": "[21]", "value": -0.067}, {"measurement": "glycan array binding signal (z-score)", "setting": "[22]", "value": -0.065}, {"measurement": "glycan array binding signal (z-score)", "setting": "[23]", "value": -0.08}, {"measurement": "glycan array binding signal (z-score)", "setting": "[24]", "value": -0.036}, {"measurement": "glycan array binding signal (z-score)", "setting": "[25]", "value": -0.061}, {"measurement": "glycan array binding signal (z-score)", "setting": "[26]", "value": -0.08}, {"measurement": "glycan array binding signal (z-score)", "setting": "[27]", "value": -0.072}, {"measurement": "glycan array binding signal (z-score)", "setting": "Neu5Ac(a2-3)GalNAc", "value": -0.046}, {"measurement": "glycan array binding signal (z-score)", "setting": "[28]", "value": -0.06}, {"measurement": "glycan array binding signal (z-score)", "setting": "[29]", "value": -0.067}, {"measurement": "glycan array binding signal (z-score)", "setting": "[30]", "value": -0.087}, {"measurement": "glycan array binding signal (z-score)", "setting": "[31]", "value": -0.105}, {"measurement": "glycan array binding signal (z-score)", "setting": "[32]", "value": -0.08}, {"measurement": "glycan array binding signal (z-score)", "setting": "Neu5Ac(a2-6)Gal", "value": -0.056}, {"measurement": "glycan array binding signal (z-score)", "setting": "[33]", "value": -0.054}, {"measurement": "glycan array binding signal (z-score)", "setting": "Neu5Ac(a2-6)Gal(b1-4)Glc", "value": -0.068}, {"measurement": "glycan array binding signal (z-score)", "setting": "[34]", "value": -0.069}, {"measurement": "glycan array binding signal (z-score)", "setting": "[35]", "value": -0.004}, {"measurement": "glycan array binding signal (z-score)", "setting": "[36]", "value": -0.065}, {"measurement": "glycan array binding signal (z-score)", "setting": "[37]", "value": -0.083}, {"measurement": "glycan array binding signal (z-score)", "setting": "[38]", "value": -0.079}]}]}
